Measurements from PubChem BioAssay (NCI).
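Exposure lasted 48 hours, with cells grown in 96-well plates and compounds tested at five concentrations. GI50 marks 50% less growth. TGI: total growth inhibition.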

Tested on: NCI-H322M lung
Test: growth of human tumour cells (NCI), 48 h

| Structure (SMILES) | GI50 [µM] | TGI [µM] |
| --- | --- | --- |
| C[C@H]1[C@@H](CC(=O)N[C@@H](Cc2coc3ccccc23)B(O)O)O[C@@H]2OC3(C)CC[C@H]4[C@H](C)CC[C@@H]1[C@@]24OO3 | 10.3 | 34.3 |
| Cc1ccc(-c2ccc(SCC(=O)Nc3ccc(Cl)c(C(F)(F)F)c3)nn2)cc1 | 30.4 | > 100 |
| CC(=O)Nc1cccc(-c2nc3cc(-c4ccc(O)cc4)ccc3n2C)c1 | 19 | 61.9 |
| O=C(/C=C/c1cccc(Br)c1)c1nc2ccccc2n1Cc1ccc(Br)cc1 | 4.1 | 17.4 |
